These results are taken from the antibiotic and cytotoxicity screens of Wong et al. (2023).

For one experiment, the system named is HSkMC. Briefly: cytotoxicity call (relative viability < 0.9). The conditions noted are these: 10 µM.
The next experiment concerns S. aureus RN4220. Briefly: growth inhibition call (relative growth <= 0.2). The note with it: 50 µM.

Some of the results follow.

For `Cc1noc(C)c1S(=O)(=O)Nc1cccc2c1O[C@H](CN(C)C(=O)Nc1ccc3c(c1)OCO3)[C@H](C)CN([C@@H](C)CO)C2=O`, in the experiment with HSkMC, the cytotoxicity call was “inactive”. Besides, the growth inhibition call in the experiment on S. aureus RN4220 was “inactive”.
`C[C@H](CO)N1C[C@H](C)[C@@H](CN(C)Cc2ccc(-c3ccccc3)cc2)OCc2ccccc2-c2c(n(C)c3ccccc23)C1=O`: in the experiment with HSkMC, the cytotoxicity call is “inactive”. The growth inhibition call with S. aureus RN4220 was “inactive”.
Consider `C[C@H](CO)N1C[C@H](C)[C@@H](CN(C)Cc2cccc(C(=O)O)c2)Oc2ncc(C#CC(C)(C)O)cc2C1=O`, for which the cytotoxicity call in the experiment with HSkMC was “inactive”. Besides, the growth inhibition call with S. aureus RN4220 was “inactive”.
For the compound `C[C@H](CO)N1C[C@H](C)[C@H](CN(C)C(=O)Nc2cccc(Cl)c2Cl)OCc2ccccc2-c2ccccc2C1=O`, the cytotoxicity call in the experiment with HSkMC is “inactive”. The growth inhibition call in the experiment on S. aureus RN4220 was “inactive”.
As for `Cc1ccc(S(=O)(=O)N2C[C@H](O)COC[C@@H]3O[C@@H](CC(=O)N[C@@H]4CCN(Cc5ccccc5)C4)CC[C@H]32)cc1`, the cytotoxicity call in the experiment with HSkMC is “inactive”. Also, in the experiment with S. aureus RN4220, the growth inhibition call is “inactive”.
`COc1cccc(-c2ccc3c(c2)O[C@@H](CN(C)Cc2cncnc2)[C@@H](C)CN([C@@H](C)CO)S3(=O)=O)c1`: the cytotoxicity call with HSkMC is “inactive”. Also, in the experiment on S. aureus RN4220, the growth inhibition call was “inactive”.
As for `Cc1ccc(S(=O)(=O)Nc2ccc3c(c2)C(=O)N([C@@H](C)CO)C[C@@H](C)[C@@H](CN(C)C(=O)CCC(F)(F)F)OCCCC[C@@H](C)O3)cc1`, the cytotoxicity call in the experiment with HSkMC was “inactive”. In addition, the growth inhibition call in the experiment with S. aureus RN4220 was “inactive”.
On to `NCc1cccc2c1OCC2`, for which the cytotoxicity call in the experiment on HSkMC is “inactive”. Further, the growth inhibition call with S. aureus RN4220 was “inactive”.
Regarding `Nc1nc(N)c2c(n1)CCCC2`, the cytotoxicity call in the experiment with HSkMC was “inactive”. In the experiment on S. aureus RN4220, the growth inhibition call is “inactive”.
For the compound `COc1cc(OC)c(S(=O)(=O)N(C)Cc2ccccc2)cc1S(=O)(=O)N(C)Cc1ccccc1`, in the experiment with HSkMC, the cytotoxicity call was “inactive”. Besides, the growth inhibition call in the experiment on S. aureus RN4220 is “inactive”.
`C[C@@H]1CN([C@H](C)CO)C(=O)c2cc(NC(=O)C3CCCCC3)ccc2O[C@@H](C)CCCCO[C@@H]1CN(C)Cc1ccc(C(=O)O)cc1`: the cytotoxicity call in the experiment with HSkMC was “inactive”. The growth inhibition call in the experiment with S. aureus RN4220 was “inactive”.
On to `CN(C)CCN1CCNCC1`, for which the cytotoxicity call in the experiment with HSkMC is “inactive”. Besides, the growth inhibition call with S. aureus RN4220 is “inactive”.
On to `C[C@@H]1CCCCO[C@H](CN(C)CC2CC2)[C@@H](C)CN([C@H](C)CO)C(=O)c2cc(NC(=O)Nc3cccc4ccccc34)ccc2O1`, for which, in the experiment on HSkMC, the cytotoxicity call is “inactive”. In the experiment on S. aureus RN4220, the growth inhibition call was “inactive”.
As to `CC(=O)c1ccc2c(c1)N(CCCN1CCN(CCO)CC1)c1ccccc1S2.O=C(O)C=CC(=O)O`, the cytotoxicity call in the experiment on HSkMC was “inactive”. The growth inhibition call in the experiment with S. aureus RN4220 is “inactive”.
On to `COCCNC(=O)[C@H]1[C@H](CO)[C@H]2Cn3c(cccc3=O)[C@@H]1N2S(=O)(=O)c1ccccc1C`, for which the cytotoxicity call in the experiment on HSkMC is “inactive”. In addition, the growth inhibition call in the experiment on S. aureus RN4220 was “inactive”.
`C[C@H](CO)N1C[C@H](C)[C@@H](CN(C)C(=O)Cc2ccccc2)OCCCC[C@H](C)Oc2ccc(NC(=O)Cc3ccccc3)cc2C1=O`: the cytotoxicity call in the experiment on HSkMC is “inactive”. Moreover, the growth inhibition call with S. aureus RN4220 is “inactive”.
On to `CC(C)(C)S(=O)N1Cc2cc(C(=O)N[C@@H]3CCN(Cc4ccccc4)C3)nc(-c3cccc(-c4cccc(F)c4)c3)c2[C@@H]1CCO` (stereo partly specified), for which the cytotoxicity call in the experiment with HSkMC was “inactive”. Besides, the growth inhibition call in the experiment with S. aureus RN4220 is “inactive”.
With `C[C@@H]1CN([C@H](C)CO)C(=O)Cc2cc(NC(=O)Nc3cccc4ccccc34)ccc2O[C@H]1CN(C)Cc1ccncc1`, the cytotoxicity call in the experiment on HSkMC was “inactive”. Moreover, in the experiment on S. aureus RN4220, the growth inhibition call was “inactive”.
Take `CC(C)NC(=O)N(C)C[C@@H]1Oc2ncc(-c3ccc(C(=O)N(C)C)cc3)cc2C(=O)N([C@@H](C)CO)C[C@H]1C`: in the experiment with HSkMC, the cytotoxicity call was “inactive”. Besides, in the experiment with S. aureus RN4220, the growth inhibition call was “inactive”.
Regarding `COc1cccc(-c2cn(CC[C@@H]3CC[C@@H](NS(=O)(=O)c4ccccc4Cl)[C@H](CO)O3)nn2)c1`, in the experiment with HSkMC, the cytotoxicity call was “inactive”. Also, in the experiment with S. aureus RN4220, the growth inhibition call was “inactive”.
`COc1ccccc1CN1C(=O)c2ccccc2[C@](Cc2ccccc2I)(C(=O)NCCN2CCOCC2)[C@@H]1c1ccc(CO)cc1`: the cytotoxicity call with HSkMC is “inactive”. Further, the growth inhibition call in the experiment on S. aureus RN4220 was “inactive”.
Consider `COc1ccc(CN(C)C[C@H]2Oc3c(NS(=O)(=O)c4c(C)noc4C)cccc3C(=O)N([C@H](C)CO)C[C@H]2C)cc1`, for which the cytotoxicity call with HSkMC is “inactive”. In the experiment with S. aureus RN4220, the growth inhibition call was “inactive”.
As to `O=c1cc(-c2cccc(O)c2)oc2ccc(O)cc12`, the cytotoxicity call in the experiment on HSkMC was “inactive”. Besides, the growth inhibition call in the experiment on S. aureus RN4220 was “inactive”.
As for `C[C@@H]1CN([C@@H](C)CO)C(=O)c2cc(NC(=O)c3ccccc3)ccc2O[C@@H](C)CCCCO[C@H]1CN(C)Cc1ccncc1`, in the experiment on HSkMC (human skeletal muscle cells), the cytotoxicity call was “inactive”. The growth inhibition call with S. aureus RN4220 was “inactive”.
Turning to `Cc1noc(C)c1NC(=O)N(C)C[C@H]1OCCCC[C@H](C)Oc2ccc(NS(=O)(=O)c3ccccc3)cc2C(=O)N([C@@H](C)CO)C[C@H]1C`, the cytotoxicity call in the experiment with HSkMC is “inactive”. For the same compound, the growth inhibition call with S. aureus RN4220 is “inactive”.
With `C[C@@H]1CN([C@H](C)CO)C(=O)c2cc(C3=CCCC3)cnc2O[C@H]1CN(C)S(=O)(=O)c1cn(C)cn1`, the cytotoxicity call in the experiment with HSkMC is “inactive”. In the experiment with S. aureus RN4220, the growth inhibition call was “inactive”.
For `Cc1ccc(S(=O)(=O)Nc2ccc3c(c2)CC(=O)N([C@H](C)CO)C[C@H](C)[C@H](CN(C)S(=O)(=O)c2ccccc2)O3)cc1`, the cytotoxicity call with HSkMC was “inactive”. Besides, the growth inhibition call in the experiment with S. aureus RN4220 was “inactive”.
As for `COc1ccc(S(=O)(=O)N(C)C[C@H]2OCCCC[C@@H](C)Oc3ccc(NC(=O)c4ccccc4)cc3C(=O)N([C@@H](C)CO)C[C@@H]2C)cc1`, the cytotoxicity call with HSkMC was “inactive”. In the experiment with S. aureus RN4220, the growth inhibition call was “inactive”.
